The other results are listed elsewhere or left out. The full chains were built here from the parent and the listed change. Values near 0.05 are background.
B1: TEV protease; numbered along this chain (parent)
chain: MGESLFKGPRDYNPISSSICHLTNESDGHTTSLYGIGFGPFIITNKHLFRRNNGTLVVQSLHGVFKVKDTTTLQQHLVDGRDMIIIRMPKDFPPFPQKLKFREPQREERICLVTTNFQTKSMSSMVSDTSCTFPSGDGIFWKHWIQTKDGQCGSPLVSTRDGFIVGIHSASNFTNTNNYFTSVPKNFMELLTNQEAQQWVSGWRLNADSVLWGGHKVFMVKPEEPFQPVKEATQL

Variants of: B1
Assay: raw area under fraction-flipped curve 0-4 h after induction (AUC4h, not background-subtracted), DNA-recorder readout of cleavage of the substrate (dimensionless); higher = more cleavage of the substrate by the protease variant
Conditions: temperature: 34 °C; time window: 0-4 h after rhamnose induction
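Further: Bxb1 expression induced with 0.2% (w/v) L-rhamnose at OD600 near 0.5, cultures sampled hourly, flipped fraction per protease–substrate barcode pair counted by paired-end Illumina sequencing.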

Variant	area with substrate ENLDFQS	area with substrate ENLEFQS	area with substrate ENLFFQS	area with substrate ENLGFQS	area with substrate ENLIFQS	area with substrate ENLKFQS	area with substrate ENLMFQS	area with substrate ENLNFQS	area with substrate ENLPFQS	area with substrate ENLRFQS	area with substrate ENLSFQS	area with substrate ENLVFQS	area with substrate ENLHFQS	area with substrate ENLLFQS	area with substrate ENLQFQS	area with substrate ENLTFQS	area with substrate ENLWFQS
I85F	0.0354	0.0595	0.0743	0.0383	0.0938	0.0655	0.0648	0.0818	0.0549	0.0612	0.0375	0.0758					
W144T	0.0739	0.0487	0.0557			0.0664	0.0917	0.0628			0.0436	0.0787	0.0749				
V64N	0.0593	0.0741	0.0849			0.0719	0.065	0.0625	0.0759	0.0604			0.0562	0.0757	0.0779	0.06	
G136P	0.0594			0.0732	0.0589				0.0577	0.053	0.0571			0.0571	0.0623		0.0412
N193P	0.0588		0.0575	0.05	0.0824	0.063		0.0754		0.0757	0.0678	0.0823	0.0549	0.0684	0.0637		0.0698
V57M	0.0539	0.0621	0.0855	0.0699	0.0446	0.0707	0.0937		0.0578	0.0737		0.0582	0.056	0.0925	0.0481		0.0626
T147Y	0.074			0.0624				0.0404	0.0431					0.0331	0.0955		
T159G	0.0561	0.0729			0.0833	0.0735		0.0625			0.062	0.094	0.006	0.0737	0.0587		0.0723
P89F	0.0514	0.0602	0.0492					0.0556	0.0579					0.0641			0.0522
H47R	0.0641	0.0761	0.0628	0.0609		0.0574	0.0664	0.0629			0.0675		0.0691	0.0504			0.0417
K100N	0.0583	0.0676	0.094	0.0659	0.0954	0.0899	0.054	0.0609	0.0496				0.0534	0.0656			
P94D		0.0616	0.085	0.0634		0.0753	0.0686	0.0636	0.0542		0.0715	0.116	0.0954				
L205F		0.0513	0.104					0.0788	0.0522			0.0757		0.0475			
Q105T		0.0556	0.0817		0.073	0.0839			0.0699	0.0665			0.0679	0.0684	0.0681		
S4E		0.0825	0.108			0.0798		0.0719		0.0766	0.0697		0.0801				0.0736
G80H		0.0666	0.0818			0.0865	0.119	0.0629	0.056	0.0901				0.0728	0.0767	0.0756	
E108P		0.0781	0.0569		0.0615	0.0622		0.0361	0.0756	0.0636	0.0468		0.0617			0.052	
G213S		0.0761	0.0597	0.0717		0.0685		0.0427	0.0593	0.0692	0.0579	0.0581					
G162H		0.055	0.0765	0.0765	0.0714	0.0779	0.0701	0.0456	0.0532	0.0544			0.0516	0.0665	0.0606		
H62N			0.0768	0.0628		0.0742		0.0686		0.0751			0.0711		0.0519		
Q74H			0.0722				0.0638	0.0529	0.0319	0.0688	0.0697				0.0647		0.0855
G35M			0.0567														
G35L			0.0714					0.0389	0.0466			0.0401					0.0511

From the supplement of paper PMC12217912
